Data from PubChem BioAssay AID504339 (National Center for Advancing Translational Sciences (NCATS), 2011).
Several values for one entry are separate records, joined by “and”; a condition that tells them apart may be missing. Equal entries are not always repeated. Among all 390,000 compounds or so, about 17,000 (4.4%) were called active. The shares of active, inactive and inconclusive entries below differ from those in the screen. Calls come from the whole dose curve; as a rule, active = well fitted inhibition curve with a large enough effect; inconclusive = small, poorly fitted or top-dose-only effect; inactive = no such curve, though single readings can be large or run the other way. Where the call is inconclusive, the potency comes from a doubtful curve fit.

target: Lysine-specific demethylase 4A (Homo sapiens) (UniProt O75164); assay: qHTS Assay for Inhibitors of JMJD2A-Tudor Domain; details: AlphaScreen JMJD2A-Tudor / H3K4me3 peptide binding; activity change, negative = inhibition: at 114 µM (top of the series); note: nearly all actives have a fitted effect of over 50% in size
% is set by controls: 0 for no effect and ±100 for the full control effect; potency is the fitted concentration of half-maximal effect; tags give direction and shape of the fitted curve.

Sequence of UniProt O75164 (O75164 whole entry, looked up, the tested form may be a part): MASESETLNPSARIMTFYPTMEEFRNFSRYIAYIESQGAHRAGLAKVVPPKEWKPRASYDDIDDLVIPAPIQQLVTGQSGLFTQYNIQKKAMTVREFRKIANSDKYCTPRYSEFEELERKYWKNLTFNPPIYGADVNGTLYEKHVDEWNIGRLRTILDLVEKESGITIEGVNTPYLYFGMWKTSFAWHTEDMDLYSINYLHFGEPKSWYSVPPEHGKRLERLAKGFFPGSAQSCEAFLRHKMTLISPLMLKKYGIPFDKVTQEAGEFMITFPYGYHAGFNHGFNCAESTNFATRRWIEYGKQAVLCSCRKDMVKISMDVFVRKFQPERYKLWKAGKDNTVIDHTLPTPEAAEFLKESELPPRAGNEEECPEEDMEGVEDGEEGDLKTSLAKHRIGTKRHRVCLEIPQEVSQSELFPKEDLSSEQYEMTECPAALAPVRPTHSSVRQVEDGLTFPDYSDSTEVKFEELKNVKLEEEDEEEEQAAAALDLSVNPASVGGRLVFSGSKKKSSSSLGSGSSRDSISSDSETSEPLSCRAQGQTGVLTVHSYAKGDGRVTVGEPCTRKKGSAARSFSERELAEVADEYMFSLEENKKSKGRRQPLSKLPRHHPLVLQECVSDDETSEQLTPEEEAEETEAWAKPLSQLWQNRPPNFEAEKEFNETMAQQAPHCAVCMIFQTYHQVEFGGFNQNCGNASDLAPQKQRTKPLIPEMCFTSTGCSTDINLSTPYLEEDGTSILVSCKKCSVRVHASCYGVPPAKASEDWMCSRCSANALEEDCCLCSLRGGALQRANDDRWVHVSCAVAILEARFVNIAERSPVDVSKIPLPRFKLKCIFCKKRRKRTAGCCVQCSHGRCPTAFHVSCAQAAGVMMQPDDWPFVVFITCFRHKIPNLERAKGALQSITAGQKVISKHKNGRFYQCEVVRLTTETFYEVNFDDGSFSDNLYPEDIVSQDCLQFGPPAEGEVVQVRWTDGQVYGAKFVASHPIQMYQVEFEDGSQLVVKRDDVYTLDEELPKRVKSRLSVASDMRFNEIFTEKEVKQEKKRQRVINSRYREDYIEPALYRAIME

| Compound | Potency | activity change, negative = inhibition |
| --- | --- | --- |
| NC(=O)[C@H](Cc1cc2ccccc2s1)NC(=O)[C@@H]1CC2(CC(c3cccc(NC(=O)[C@@H]4CCC(=O)N4)c3)=NO2)CN1C(=O)/C=C/Sc1ccccc1 (stereo not given in full) | inconclusive: 44.7 µM [inhibitor, partial curve] | – |
| O=C1/C(=C/c2ccccc2)SC(=S)N1N1C(=O)C2CC2C1=O (stereo not given) | inactive | – |
| CN1\C(=C/C=C/C=C/C=[N+](C)C)C(C)(C)c2ccccc21 | active: 50.1 µM | – |
| COc1ccc(N(CC(=O)N2CCN(c3ccc(F)cc3)CC2)S(=O)(=O)c2c(C)noc2C)cc1 | inactive | – |
| Cc1ccc(-n2cc(-c3ccc([N+](=O)[O-])cc3)[nH]c2=S)c(C)c1 | inconclusive: 25.1 µM [inhibitor, partial curve] | – |
| O=C(COc1cccc2c1CCN(Cc1ccc(Br)cc1)C2=O)NCc1ccco1 | active: 50.1 µM | – |
| O=c1c2cn[nH]c2nc(SCc2c(F)cccc2F)n1-c1ccc(Cl)cc1 | inconclusive: 50.1 µM [inhibitor, partial curve] and inconclusive: 56.2 µM [inhibitor, partial curve, poor fit] | – |
| CSCCC(NS(=O)(=O)c1ccccc1F)C(=O)N1CCCCCCC1 (stereo not given) | inactive | – |
| CCOc1ccc(OCCOCCN2CCOCC2)cc1 | inconclusive: 8.91 µM [inhibitor, partial curve, poor fit] | – |
| CCN1CCN(CC(=O)N/N=C/c2ccc(F)cc2F)CC1 | active: 2.82 µM | – |
| CCc1ccccc1N1CSC2=C(C#N)C(c3cc(OC)c(OC)cc3OC)CC(=O)N2C1 (stereo not given) | active: 8.91 µM | – |
| CCOC(=O)C(Cc1c[nH]c2ccccc12)NC(=O)COc1ccc(CC)cc1 (stereo not given) | inconclusive: 39.8 µM [inhibitor, full curve] | – |
| COc1ccccc1NCCC(=O)O | – | inactive: -8.09% [at 11.4 µM] |
| Nc1sc2c(c1C(=O)NC1CC1)CCCC2 | inconclusive: 56.2 µM [inhibitor, partial curve] | – |
| O=C(Nc1ccc(N2CCCC2)cc1)C(Cl)c1ccccc1 (stereo not given) | active: 28.2 µM | – |
| CN(C)CCSc1nc(-c2ccccc2)nc2c1CCCC2 | inconclusive: 56.2 µM [inhibitor, partial curve] | – |
| Nc1nc(-c2ccc(Oc3ccccc3)cc2)cs1 | inconclusive: 56.2 µM [inhibitor, partial curve] | – |
| COc1ccc(N=CC2CCCCC2=O)c([N+](=O)[O-])c1 (stereo not given) | active: 25.1 µM | – |
| Cc1ccc2[nH]c(=O)c3cc(C(=O)NCCCN4CCC(C)CC4)sc3c2c1 | inactive | – |
| O=C(Cn1ncn2c(cc3ccccc32)c1=O)NCc1ccc(F)cc1 | inactive | – |
